Experimental data: article PMC4336329 (PLoS ONE, 2015)
About 14,000 (4.5%) of roughly 310,000 compounds showed an effect of 50% or more. Effects have a minus sign here. Some of the results follow.

biological target: human ether-à-go-go-related gene (hERG) potassium channel (human, UniProt Q12809); assay: primary screen, population patch clamp on CHO cells stably expressing hERG
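Further: peak tail current of the secondary pulse compared with the same well before compound.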

human ether-à-go-go-related gene (hERG) potassium channel, sequence (Q12809 whole entry, looked up): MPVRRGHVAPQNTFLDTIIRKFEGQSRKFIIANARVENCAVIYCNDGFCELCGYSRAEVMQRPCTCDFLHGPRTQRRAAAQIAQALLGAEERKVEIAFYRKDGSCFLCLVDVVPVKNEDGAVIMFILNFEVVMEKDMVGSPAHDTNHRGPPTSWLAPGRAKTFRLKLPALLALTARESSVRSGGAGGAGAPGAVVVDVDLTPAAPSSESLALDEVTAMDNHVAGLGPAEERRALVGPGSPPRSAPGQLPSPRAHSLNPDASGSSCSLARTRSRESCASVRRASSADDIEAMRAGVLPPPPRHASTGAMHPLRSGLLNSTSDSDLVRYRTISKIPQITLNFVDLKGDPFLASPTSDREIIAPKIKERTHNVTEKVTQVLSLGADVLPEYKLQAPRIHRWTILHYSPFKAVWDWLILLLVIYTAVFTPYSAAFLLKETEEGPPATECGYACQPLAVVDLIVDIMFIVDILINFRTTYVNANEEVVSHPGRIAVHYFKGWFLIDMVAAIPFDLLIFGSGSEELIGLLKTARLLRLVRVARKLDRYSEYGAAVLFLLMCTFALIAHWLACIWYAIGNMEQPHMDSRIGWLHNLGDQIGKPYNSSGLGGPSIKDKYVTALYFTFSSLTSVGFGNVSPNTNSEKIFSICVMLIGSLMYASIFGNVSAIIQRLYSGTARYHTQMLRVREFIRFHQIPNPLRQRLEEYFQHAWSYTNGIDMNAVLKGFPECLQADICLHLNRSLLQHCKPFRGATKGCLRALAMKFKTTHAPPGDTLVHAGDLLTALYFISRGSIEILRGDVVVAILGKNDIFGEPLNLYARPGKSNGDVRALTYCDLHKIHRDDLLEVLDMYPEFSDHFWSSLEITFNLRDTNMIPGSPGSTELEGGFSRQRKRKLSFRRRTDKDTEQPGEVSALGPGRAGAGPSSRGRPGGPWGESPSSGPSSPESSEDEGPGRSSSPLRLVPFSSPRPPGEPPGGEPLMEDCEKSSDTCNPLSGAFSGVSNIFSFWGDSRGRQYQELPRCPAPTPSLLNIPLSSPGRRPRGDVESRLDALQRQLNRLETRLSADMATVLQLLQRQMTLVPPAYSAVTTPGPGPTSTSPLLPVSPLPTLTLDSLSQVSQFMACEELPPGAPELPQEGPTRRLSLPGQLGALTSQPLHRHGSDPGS

First: CC(=O)c1ccccc1OC(=O)c1ccco1
Second: COc1ccccc1NS(=O)(=O)c1cccc(C(=O)N2CCN(C(=O)c3ccco3)CC2)c1
The “hERG current change (%, negative = inhibition) at 10uM” value of the first is higher: 2.25% for the first, -15.6% for the second.

First: CCOc1ccc(NC(=O)C2C3CC/C=C\CCC32)cc1 (stereo not drawn)
Second: CCOc1ccc(NC(=O)C2CC(=O)N(c3cc(C)cc(C)c3)C2)cc1 (stereo not drawn)
The “hERG current change (%, negative = inhibition) at 10uM” value of the first is higher: 9.01% for the first, -10.1% for the second.

Going from `COc1ccc(S(=O)(=O)NNC(=O)c2cc3ccccc3o2)cc1` to `CC(=O)Nc1cc2cc(NS(=O)(=O)c3ccc(Cl)cc3)ccc2oc1=O`, the “hERG current change (%, negative = inhibition) at 10uM” value falls from 25.6% to 7.62%.

Compared with `O=C(Nc1ccc(-c2cn3ccccc3n2)cc1)c1ccc(Cl)cc1`, `Clc1ccc(-c2nnsc2SCc2ccccc2)cc1` is higher in “hERG current change (%, negative = inhibition) at 10uM” value: -3.32% for the first, -0.542% for the second.

Going from `Cn1c(SCc2ccc([N+](=O)[O-])cc2)nc2c(c1=O)SCC2` to `CSc1nsc(NC(=O)CCNC(=O)c2ccc([N+](=O)[O-])cc2)n1`, the “hERG current change (%, negative = inhibition) at 10uM” value rises from -67.5% to -41.9%.

Going from `Cc1cc(NC(=S)Nc2cccc3ccccc23)n[nH]1` to `Cc1cccc(NC(=O)C(Cc2ccccc2)n2cccc2)c1` (stereo not drawn), the “hERG current change (%, negative = inhibition) at 10uM” value falls from 16.7% to -51.2%.

First: CN1CCN(NC(=O)/C=C/c2ccc(Br)cc2)CC1
Second: CCC(=O)N1CCc2cc(Br)cc(S(=O)(=O)NCCN3CCCC3)c21
The “hERG current change (%, negative = inhibition) at 10uM” value of the first is lower: -16.2% for the first, 11.1% for the second.

Going from `COC(=O)c1ccc(COc2ccc3c(c2)CCC3)o1` to `COc1ccc2oc(=O)c(C(=O)NCc3ccc(C)cc3)cc2c1`, the “hERG current change (%, negative = inhibition) at 10uM” value rises from 2.33% to 12.5%.

Going from `C=CCNc1nc(NC(C)(C)CO)nc(OC)n1` to `CCn1nc(C)c(/C=N/NC(=O)Cn2nnnc2N)c1C`, the “hERG current change (%, negative = inhibition) at 10uM” value rises from 4.15% to 18.4%.

Going from `Cc1ccc(S(=O)(=O)Cc2ccc(C(=O)N3CCC(C)CC3)cc2)cc1` to `Cc1ccc(OC(C)C(=O)Nc2ccc(S(=O)(=O)N3CCOCC3)cc2)cc1` (stereo not drawn), the “hERG current change (%, negative = inhibition) at 10uM” value rises from -21.9% to 6.02%.

Compared with `Cc1ccc(S(=O)(=O)N(C)c2ccc3c(ncn3C)c2[N+](=O)[O-])cc1`, `Cc1ccc(S(=O)(=O)/N=C/c2cc(Br)ccc2O)cc1` is higher in “hERG current change (%, negative = inhibition) at 10uM” value: -31% for the first, 4.53% for the second.

First: COc1ccccc1CN1CCCC(CNC(=O)c2cccc3ccccc23)C1 (stereo not drawn)
Second: COc1ccccc1N1CCN(Cc2ccccc2F)CC1
The “hERG current change (%, negative = inhibition) at 10uM” value of the first is lower: -47.8% for the first, -17.6% for the second.

Going from `Cc1nc(CS(=O)(=O)c2ccc(Cl)cc2)cc(N2CCOCC2)n1` to `COc1ccc(C(=O)Nc2ncccc2C)cc1S(=O)(=O)N1CCOCC1`, the “hERG current change (%, negative = inhibition) at 10uM” value falls from 4.53% to -4.05%.

Compared with `Cc1ccc(S(=O)(=O)N2CCC(C(=O)OC(C)C(=O)NC(N)=O)CC2)cc1C` (stereo not drawn), `Cc1ccc(S(=O)(=O)N[C@@H](CC(C)C)C(=O)N2CCC(C(=O)N[C@H](C(=O)O)C(C)C)CC2)cc1` is higher in “hERG current change (%, negative = inhibition) at 10uM” value: 0.3% for the first, 1.02% for the second.

Compared with `O=C(NC1CCN(C(=O)N2c3ccccc3Sc3ccccc32)CC1)c1ccco1`, `COC(=O)[C@@]1(Cc2ccc(OC)cc2)[C@@H]2C(=CC(=O)[C@H]2CC(=O)C(=O)N2CCCC2)CN1C(=O)c1ccccc1` is lower in “hERG current change (%, negative = inhibition) at 10uM” value: 6.67% for the first, -26.5% for the second.

First: CC1CCN(CCC(=O)N2CCCc3c2c(=O)oc2ccc(O)cc32)CC1
Second: Cc1nc2ccccc2c2oc(C(=O)NCCCN3CCC(C)CC3)cc12
The “hERG current change (%, negative = inhibition) at 10uM” value of the first is higher: -14% for the first, -44.1% for the second.

First: CCn1cc(Br)c(C(=O)Nc2ccc(Cl)c(Cl)c2)n1
Second: O=C(Nc1ccccn1)c1ccc(Cl)c(S(=O)(=O)N2CCCCCC2)c1
The “hERG current change (%, negative = inhibition) at 10uM” value of the first is higher: 10.4% for the first, -32.7% for the second.

Going from `CCOC(=O)c1sc2nc(C)nc(SCC(=O)NC(C)CCc3ccccc3)c2c1C` (stereo not drawn) to `CCOC(=O)c1sc(NC(=O)CCN2C(=O)c3ccccc3C2=O)c(C(=O)OCC)c1C`, the “hERG current change (%, negative = inhibition) at 10uM” value rises from 3.45% to 8.29%.

Compared with `CCOc1ccc(S(=O)(=O)N2CCN(C(=O)CCC(=O)N3CCOCC3)CC2)cc1`, `Cc1cccc(OCCCC(=O)Nc2ccc(S(=O)(=O)N3CCCC3)cc2)c1` is lower in “hERG current change (%, negative = inhibition) at 10uM” value: 5% for the first, -21.3% for the second.

Compared with `CC(C)c1ccc(NC(=O)C2CC3CCC2C3)cc1` (stereo not drawn), `COc1ccc(NC(=O)CCNS(=O)(=O)c2ccc3c(c2)CC(C)N3C(=O)C2CC2)cc1` (stereo not drawn) is higher in “hERG current change (%, negative = inhibition) at 10uM” value: -12.7% for the first, 0.918% for the second.

Compared with `Cc1[nH]c2ccccc2c1N=Nc1cc(C(=O)O)cc(C(=O)O)c1`, `CCN(CC)S(=O)(=O)c1ccc(C(=O)Nc2cc3oc4ccccc4c3cc2OC)cc1` is higher in “hERG current change (%, negative = inhibition) at 10uM” value: -12.3% for the first, 11.5% for the second.

Compared with `O=C(CCn1cnc2ccccc2c1=O)Nc1ccc(S(=O)(=O)N2CCCC2)cc1`, `CCCCNS(=O)(=O)c1ccc(NC(=O)c2cccs2)cc1` is lower in “hERG current change (%, negative = inhibition) at 10uM” value: 17.4% for the first, 9.72% for the second.

First: CCOC(=O)N1CCN(C(=O)c2ccc3c(c2)N(CC)CCS3)CC1
Second: CCOC(=O)N1CCN(Cc2ccc(F)cc2F)CC1.O=C(O)C(=O)O
The “hERG current change (%, negative = inhibition) at 10uM” value of the first is lower: -10.4% for the first, 11.1% for the second.

Compared with `CCOC(=O)c1[nH]c(COC(=O)CCOc2ccccc2OC)c(C(=O)OCC)c1C`, `COCCn1c(C)cc(C(=O)COC(=O)c2[nH]c(C)c(C(C)=O)c2C)c1C` is lower in “hERG current change (%, negative = inhibition) at 10uM” value: -8.12% for the first, -8.96% for the second.

Compared with `COC(=O)C1=C(C)NC(=S)NC1c1ccc(-c2cccc(Cl)c2)o1` (stereo not drawn), `COC(=O)C1=C(C)NC(=O)C1(Nc1ccc(Cl)cn1)C(F)(F)F` (stereo not drawn) is higher in “hERG current change (%, negative = inhibition) at 10uM” value: 0.0503% for the first, 8.7% for the second.

Going from `CCc1ccc2nc3n[nH]c(N)c3cc2c1` to `Cc1ccc2nc(C)cc(OCC(=O)O)c2c1.Cl`, the “hERG current change (%, negative = inhibition) at 10uM” value rises from -1.93% to 24.6%.

Going from `COc1cc([N+](=O)[O-])ccc1NC(=O)CN1CCOCC1` to `CC(C)CCOc1ccc(C(=O)NCC(c2cccs2)N2CCOCC2)cc1` (stereo not drawn), the “hERG current change (%, negative = inhibition) at 10uM” value falls from 9.44% to -21.1%.

Going from `Br.COc1ccc(-c2csc(Nc3ccc(S(N)(=O)=O)cc3)n2)cc1` to `Cc1ccc(-c2csc(C3=C(O)CN(NC(=O)c4ccc([N+](=O)[O-])cc4)C3=N)n2)cc1`, the “hERG current change (%, negative = inhibition) at 10uM” value rises from 4.33% to 26.3%.

Compared with `CC1CCN(S(=O)(=O)c2ccc3c(c2)N(CC(=O)NCCCN2CC(C)CC(C)C2)C(=O)CS3)CC1` (stereo not drawn), `O=C(CN(CC1CCCO1)C(=O)CNS(=O)(=O)c1ccc(F)cc1)NCC1CCCO1` (stereo not drawn) is higher in “hERG current change (%, negative = inhibition) at 10uM” value: -66.2% for the first, 5.36% for the second.

Going from `c1ccc2c(c1)ncn2CCC1CCCCC1` to `O=C(CN(C(=O)c1csnn1)c1ccccc1C(F)(F)F)NC1CCCCC1`, the “hERG current change (%, negative = inhibition) at 10uM” value rises from -5.47% to 5.2%.

Compared with `CCCCCCOc1ccc(N2C(=O)CC(S/C(N)=N/N=C(\C)c3cccs3)C2=O)cc1` (stereo not drawn), `CCn1c(COc2ccc(=O)n(-c3ccccc3)n2)nnc1SCc1ccc(OC)cc1` is lower in “hERG current change (%, negative = inhibition) at 10uM” value: -1.96% for the first, -67.7% for the second.

Going from `O=C1c2cccnc2C(=O)N1Cc1cccs1` to `COc1cccc2sc(N(CCN(C)C)C(=O)/C=C/c3cccs3)nc12.Cl`, the “hERG current change (%, negative = inhibition) at 10uM” value falls from -13.1% to -41.5%.

Compared with `COc1cc(CO)ccc1Oc1nnnn1-c1ccc(C(N)=O)cc1`, `COc1ccc(C(=O)NNC(=O)CSc2nnnn2-c2cc(OC)cc(OC)c2)cc1` is higher in “hERG current change (%, negative = inhibition) at 10uM” value: 3.7% for the first, 11.7% for the second.

Compared with `Nc1ccn(CC(=O)NCCNc2ccc([N+](=O)[O-])cn2)c(=O)n1`, `CCNc1ccc(C(=O)OCC(=O)c2cc(C)n(Cc3ccc4c(c3)OCO4)c2C)cc1[N+](=O)[O-]` is lower in “hERG current change (%, negative = inhibition) at 10uM” value: 7.53% for the first, 2.32% for the second.

Going from `COc1ccc2cc(CO)n(C)c2c1` to `COc1ccc(CN(C(=O)CSc2nnc(-c3ccccc3C)o2)c2ccc(F)cc2)cc1`, the “hERG current change (%, negative = inhibition) at 10uM” value falls from 10.4% to 8.45%.

Going from `O=C(O)CCc1ccc(-c2cccs2)n1NC(=O)c1ccc(Cl)cc1Cl` to `CN(C)c1ccc(NC(=O)CSc2nnc(-c3cccs3)n2Cc2ccco2)cc1`, the “hERG current change (%, negative = inhibition) at 10uM” value falls from -1.02% to -39.4%.

Compared with `Cc1cc(-c2ccc(C)c(S(=O)(=O)Nc3cc(C)on3)c2)on1`, `Cc1cccc(-n2nc3c(c2NC(=O)c2ccc(Br)o2)CSC3)c1C` is lower in “hERG current change (%, negative = inhibition) at 10uM” value: 2.92% for the first, -6.05% for the second.

Compared with `CN1CC[C@]2(CCN3CCc4c(oc5ccccc45)[C@@H]3C2)N(C)C1=O.Cl`, `CC(C)(C)n1nnnc1C(c1cccnc1)N1CCN(c2ccccc2)CC1` (stereo not drawn) is higher in “hERG current change (%, negative = inhibition) at 10uM” value: -11.2% for the first, -8.19% for the second.

Compared with `O=C(CSc1ncccn1)NN=C1CCCCCCC1`, `O=C(NC1CC1)C1CCCN1C(=O)NC1CCCCC1` (stereo not drawn) is higher in “hERG current change (%, negative = inhibition) at 10uM” value: 1.7% for the first, 21.2% for the second.

Going from `COc1cc(NC(=O)C2CC(=O)NC3=C2C(=O)CCC3)cc(OC)c1` (stereo not drawn) to `O=C1CCCC(O)=C1C=Nc1cccc(C(F)(F)F)c1`, the “hERG current change (%, negative = inhibition) at 10uM” value falls from 18.4% to -3.27%.

First: N#Cc1ccc(OCCOCCNC2CCCC2)cc1
Second: Cc1ccc(N(C(=O)c2csnn2)C(C(=O)NC2CCCC2)c2cccnc2)c(C)c1 (stereo not drawn)
The “hERG current change (%, negative = inhibition) at 10uM” value of the first is lower: -17.6% for the first, -8.47% for the second.

First: CCc1nnc(NC(=O)CSc2nnc(-c3ccccc3O)o2)s1
Second: O=C(CSc1nnc(NC(=O)c2ccc(F)cc2)s1)NCc1ccco1
The “hERG current change (%, negative = inhibition) at 10uM” value of the first is higher: 24.3% for the first, 19% for the second.

Compared with `O=C(CCNS(=O)(=O)c1cccs1)N1CCc2ccccc2C1`, `CS(=O)(=O)N(Cc1ccccc1Cl)c1ccc(C(=O)NCc2ccccn2)cc1` is higher in “hERG current change (%, negative = inhibition) at 10uM” value: -21% for the first, -5.8% for the second.

With `Fc1ccccc1CCNCc1ccccc1` the “hERG current change (%, negative = inhibition) at 10uM” value was 5.42%.
